Measured values published in PMC6073767.

Assay: confocal colocalisation, AD293
Settings: glycan lost, control: wild-type Panx2

B1: Panx2: N86Q (protein)
parent chain: MHHLLEQSADMATALLAGEKLRELILPGSQDDKAGALAALLLQLKLELPFDRVVTIGTVLVPILLVTLVFTKNFAEEPIYCYTPHNFTRDQALYARGYCWTELRDALPGVDASLWPSLFEHKFLPYALLAFAAIMYVPALGWEFLASTRLTSELNFLLQEIDNCYHRAAEGRAPKIEKQIQSKGPGITEREKREIIENAEKEKSPEQNLFEKYLERRGRSNFLAKLYLARHVLILLLSVVPISYLCTYYATQKQNEFTCALGASPDGPVGSAGPTVRVSCKLPSVQLQRIIAGVDIVLLCFMNLIILVNLIHLFIFRKSNFIFDKLNKVGIKTRRQWRRSQFCDINILAMFCNENRDHIKSLNRLDFITNESDLMYDNVVRQLLAALAQSNHDTTPTVRDSGIQTVDPSINPAEPDGSAEPPVVKRPRKKMKWIPTSNPLPQPFKEQLAIMRVENSKTEKPKPVRRKTATDTLIAPLLDAGARAAHHYKGSGGDSGPSSAPPAASEKKHTRHFSLDVHPYILGTKKAKTEAVPPALPASRSQEGGFLSQTEECGLGLAAAPTKDAPLPEKEIPYPTEPALPGLPSGGSFHVCSPPAAPAAASLSPGSLGKADPLTILSRNATHPLLHISTLYEAREEEEGGPCAPSDMGDLLSIPPPQQILIATFEEPRTVVSTVEF
Colocalisation with ER marker PDI
  localisation_or_trafficking, other: Pearson colocalisation coefficient: decreases, 0.34 ± 0.03 vs 0.49 ± 0.02
Colocalisation with Mitotracker mitochondria
  localisation_or_trafficking, other: Pearson colocalisation coefficient: no change, −0.13 ± 0.06 vs −0.08 ± 0.03
Colocalisation with cis-Golgi marker GM130
  localisation_or_trafficking, other: Pearson colocalisation coefficient: increases, 0.43 ± 0.04 vs 0.23 ± 0.03
Colocalisation with lysosome marker Lamp-2
  localisation_or_trafficking, other: Pearson colocalisation coefficient: no change, −0.05 ± 0.02 vs −0.08 ± 0.01

Some values that stand alone complete this part of the results.
